# Results taken from PubChem BioAssay AID602310 (National Center for Advancing Translational Sciences (NCATS), 2012).
# Screen size: about 410,000 compounds; about 310 (0.076%) were called active. Inconclusive means that the source gave no clear call. Such entries were picked first, then a sample of the others. Calls follow the shape of the dose curve; as a rule, active = well fitted curve in the direction sought with a large enough effect; inconclusive = small, poorly fitted or top-dose-only effect; inactive = flat fitted curve, though single readings scatter. Potencies beside an inconclusive call are fits to weak or partial responses and may not hold up.
# Target: DNA dC->dU-editing enzyme APOBEC-3G (Homo sapiens) (UniProt Q9HC16)
# UniProt Q9HC16, sequence (Q9HC16 whole entry, looked up): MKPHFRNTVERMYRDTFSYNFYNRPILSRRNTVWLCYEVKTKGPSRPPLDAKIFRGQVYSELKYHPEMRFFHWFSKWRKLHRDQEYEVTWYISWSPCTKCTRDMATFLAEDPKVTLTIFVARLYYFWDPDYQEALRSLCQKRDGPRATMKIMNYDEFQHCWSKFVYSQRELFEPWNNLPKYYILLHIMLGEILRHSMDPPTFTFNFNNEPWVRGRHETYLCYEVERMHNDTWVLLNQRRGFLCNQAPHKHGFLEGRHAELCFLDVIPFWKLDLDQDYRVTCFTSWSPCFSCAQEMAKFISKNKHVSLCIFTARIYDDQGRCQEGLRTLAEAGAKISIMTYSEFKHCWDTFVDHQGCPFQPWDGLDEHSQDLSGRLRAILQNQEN
# Assay: qHTS for Inhibitors of Vif-A3G Interactions: qHTS; also: nearly all actives have a fitted effect of over 60% in size
# Conditions: HeLa A3G-eYFP + Vif (tagged APOBEC3G with the HIV-1 protein that degrades it), YFP fluorescence, overnight; series mostly up to 46.1 µM
# Outline: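 HeLa cells stably expressing Vif and C-terminally eYFP-tagged A3G, seeded overnight at 37 deg C, then exposed to compound by pintool overnight at 37 deg C. Rise in yellow fluorescence (Ex 488/Em 500-530, Acumen) marks blocked Vif-driven A3G degradation.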
# Potency is read from the fitted curve at half-maximal effect; tags tell the direction and shape of the fitted curve.
row,Compound,Potency
1,CCn1c(CNC(=O)C23CC4CC(CC(C4)C2)C3)nnc1SCC(=O)Nc1ccc(OC)cc1,active: 10 µM
2,Cc1ccc(CCNC(=O)c2ccc(Cn3c(=O)c4cccn4c4cccnc43)cc2)cc1,"inconclusive: 8.91 µM [inhibitor, partial curve, poor fit]"
3,COC(=O)c1ccc(Cl)c(NS(=O)(=O)c2ccc3c(c2)OCCO3)c1,"inconclusive: 3.16 µM [inhibitor, full curve, poor fit]"
4,CCOC(=O)/C(=C\c1cccc(O)c1)c1nc2sc(C)c(C)c2c(=O)[nH]1,"inconclusive: 8.91 µM [inhibitor, partial curve]"
5,CCOc1ccc(C(=O)/C=C/c2ccc(OC)c(OC)c2)cc1,inactive
6,Cc1[nH]c2ccc(C(=O)NCCc3ccccc3Cl)cc2c1C,inactive
7,CCc1cc(SC#N)cc(C)c1N,inactive
8,C(=C\c1sc(Nc2ccccc2)n[n+]1-c1ccccc1)/c1ccccc1,inactive
9,COc1ccc(CCn2c(C3CCCCC3)nc3c(c(=O)c4ccccc4n3C)c2=O)cc1,"inconclusive: 3.16 µM [inhibitor, full curve, poor fit]"
10,O=C(N/N=C/c1cccc(Oc2ccccc2)c1)c1ccccc1Br,"inconclusive: 35.5 µM [inhibitor, single point]"
11,COCCn1c(-c2ccc(-c3ccccc3Cl)o2)nc2c1c(=O)[nH]c(=O)n2CC(C)C,inactive
12,O=C(N/N=C/C=C\c1ccco1)c1ccccn1,"inconclusive: 35.5 µM [inhibitor, single point]"
13,O=C(Nc1ccccc1)Nc1nnc(CSCc2ccccc2Cl)s1,inactive
14,Cc1nn(CCc2nn[nH]n2)c2nc(-c3ccc(C4CCCCC4)cc3)cc(C(F)(F)F)c12,inactive
15,CC(C)N1CCc2c(sc(NC(=S)NC(=O)c3ccccc3)c2C#N)C1,"inconclusive: 20 µM [inhibitor, partial curve, poor fit]"
16,CCCOc1ccccc1C1CC(=O)NC2=C1C(=O)CCC2 (centres undefined),"inconclusive: 5.01 µM [inhibitor, full curve]"
17,Clc1ccc2[nH]c(-c3ccccc3)cc2c1,"inconclusive: 22.4 µM [inhibitor, single point]"
18,Nn1c(SCC(=O)N2CCOCC2)nnc1-c1cccnc1,"inconclusive: 11.2 µM [inhibitor, partial curve, poor fit]"
19,CCOc1ccccc1CNC(=O)c1ccc2nc(CCc3ccccc3)oc2c1,"inconclusive: 22.4 µM [inhibitor, single point]"
20,N#Cc1nc(/C=C/c2ccc(F)cc2)oc1N1CCCCC1,inactive
21,CC(=O)N/N=C/c1cc(C(C)C)cc(/C=N/NC(C)=O)c1O,"inconclusive: 35.5 µM [inhibitor, single point]"
22,Cc1c(Cl)cccc1Nc1ccccc1C(=O)O,inactive

row,Compound,Potency
1,CCN(c1cc(C)cc(C)c1)S(=O)(=O)c1nnc(NC(=O)c2ccccc2C)s1,"inconclusive: 15.8 µM [inhibitor, single point]"
2,COc1ccc(NC(=O)C2Cc3c(-c4ccc(NC(C)=O)cc4)ccnc3O2)cn1 (centres undefined),"inconclusive: 10 µM [inhibitor, partial curve]"
3,CC(=O)c1ccc2cccc3c2c1N=CN3C,active: 12.6 µM
4,O=C(NC12CC3CC(CC(C3)C1)C2)c1ccc([N+](=O)[O-])o1,"inconclusive: 11.2 µM [inhibitor, partial curve, poor fit]"
5,O=C(CCNS(=O)(=O)c1ccc2c(c1)CCCC(=O)N2)NCc1ccc(Cl)cc1,inactive
6,O=C(COC(=O)c1ccc(NS(=O)(=O)c2cccs2)cc1O)NCc1ccccc1,"inconclusive: 3.98 µM [inhibitor, full curve]"
7,COC(=O)c1sccc1S(=O)(=O)N(CC(=O)Nc1cc(F)ccc1F)c1ccc(C)c(C)c1,"inconclusive: 17.8 µM [inhibitor, partial curve, poor fit]"
8,CCc1ccc(C(=O)/C=C/c2ccc([N+](=O)[O-])o2)cc1,"inconclusive: 12.6 µM [inhibitor, partial curve]"
9,C=CCNc1nc(Nc2ccc(OC)c(OC)c2)c2sc(-c3ccccc3)cc2n1,"inconclusive: 1.12 µM [inhibitor, full curve, poor fit]"
10,O=C1COc2ccc(C(=O)CSc3nc4ccccc4c(=O)n3-c3ccc(Cl)c(Cl)c3)cc2N1,"inconclusive: 10 µM [inhibitor, partial curve, poor fit]"
11,CC1(C(=O)NCc2ccccc2)Cc2c(-c3ccc4c(c3)OCO4)ccnc2O1 (centres undefined),"inconclusive: 0.562 µM [inhibitor, full curve, poor fit]"
12,Cc1ccc(/C=N/NC(=S)Nc2cccc(S(=O)(=O)N(C)C)c2)o1,"inconclusive: 11.2 µM [inhibitor, single point]"
13,COc1ccc(-c2nn(C)c(=O)c3ccccc23)cc1NC(=O)Cn1nc(C)c2ccccc2c1=O,"inconclusive: 25.1 µM [inhibitor, single point]"
14,Cc1ccc(N/C=C/C(=O)c2sc(-c3ccccc3)nc2C)cc1,"inconclusive: 14.1 µM [inhibitor, single point]"
15,CC(=O)Nc1cccc(-c2ccnc3c2CC(C(=O)NCc2cccs2)O3)c1 (centres undefined),"inconclusive: 2.24 µM [inhibitor, full curve]"
16,Clc1ccc(CNc2ncnc3[nH]ncc23)c(Cl)c1,inactive
17,COc1ccc(-c2ccnc(-c3ccncc3)n2)cc1,"inconclusive: 11.2 µM [inhibitor, partial curve]"
18,O=C(c1ccccc1)c1ccc(OCCCN2CCCCC2)cc1,inactive
19,Cc1ccc2c(c1)CCCN2C(=O)c1ccoc1C,inactive
20,CCOc1cc(C#N)c(NC(=O)c2ccco2)cc1OCC,"inconclusive: 7.08 µM [inhibitor, partial curve, poor fit]"
21,CCCc1cc(-n2ccnc2)n2c(nc3ccccc32)c1C#N,"inconclusive: 1.41 µM [inhibitor, partial curve, poor fit]"
22,Oc1ccc2ccccc2c1/C=N/Nc1ccccc1,"inconclusive: 22.4 µM [inhibitor, single point]"
